Experimental findings from paper PMC7566708, “Fibroblast growth factor homologous factors tune arrhythmogenic late NaV1.5 current in calmodulin binding–deficient channels” (JCI Insight, 2020) are described below.

The term Kd denotes the free concentration of one partner at which half of the binding sites on the other are occupied at equilibrium, for simple one-to-one binding.

For this assay, the target named is T1, FGF13 (UniProt Q92913-1 1-245).
T1 construct: FGF13 used for isothermal titration calorimetry; also called FHF; fibroblast growth factor homologous factor
T1 sequence (looked up): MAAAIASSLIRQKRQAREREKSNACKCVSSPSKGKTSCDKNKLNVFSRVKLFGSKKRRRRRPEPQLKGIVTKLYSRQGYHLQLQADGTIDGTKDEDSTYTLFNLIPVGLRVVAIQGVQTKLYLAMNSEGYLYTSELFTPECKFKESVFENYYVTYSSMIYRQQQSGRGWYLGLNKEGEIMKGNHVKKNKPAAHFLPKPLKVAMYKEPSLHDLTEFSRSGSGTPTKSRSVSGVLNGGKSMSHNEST
Description: ITC; NaV1.5 C-terminal domain (20-51 uM) titrated with FGF13 (240-510 uM); ITC-200, 20°C; single-site binding model. Conditions: both partners purified. (Isothermal titration calorimetry measures the heat released or taken up as one component is titrated into another.)

B1: NaV1.5 C-terminal domain (domain or fragment)
chain: not shown
notes: C-terminal domain of the cardiac sodium channel NaV1.5 (SCN5A); also called C-terminus of NaV1.5; NaV1.5 carboxy-terminus
Molecule B1 returned a dissociation constant Kd of 16.6 nM.
